Among the data in article PMC4242493 are binding signal (normalized occupancy) values, retold here.

Some of the results follow. The list includes weakly bound sequences.

The test concerns the target MaxL homodimer (UniProt P61244). As to the kind of experiment: universal protein-binding microarray (PBM). The conditions noted are these: PBS-based mixture, 10 nM His-tagged protein dimer, 2% milk, 200 ng/uL BSA, 50 ng/uL salmon testes DNA, 0.02% TX-100; detection with Alexa 488 anti-His …; high values mean tight binding; most listed sequences are background and not binding sites; double strand, one strand shown.
Sequence of UniProt P61244 (P61244 whole entry): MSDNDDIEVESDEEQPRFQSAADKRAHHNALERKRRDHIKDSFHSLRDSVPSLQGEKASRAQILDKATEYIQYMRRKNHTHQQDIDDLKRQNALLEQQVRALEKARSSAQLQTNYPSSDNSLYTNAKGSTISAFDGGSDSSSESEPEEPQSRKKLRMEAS
Consider AACGTTGT, for which the binding signal (normalized occupancy) turned out to be 0.0817.
The value for AAGTCCAC was 0.0776; that for AAGAGCAG was 0.0746.
With CTGAATGA, the binding signal (normalized occupancy) turned out to be 0.0725.
For CGTCACCC the value was 0.0766; for ATACAGAC, 0.0801; for CGCTTACC, 0.0746.
For ATGGCTAA the value was 0.0788.
The value for CCCCCAAC was 0.0751; that for AGAGAATG was 0.077; that for ATCAGATG was 0.0804.
For AACTTCAA, the binding signal (normalized occupancy) worked out at 0.0748.
CCGCTTTC: the binding signal (normalized occupancy) amounted to 0.066.
The value for GGTCATAC was 0.0809; that for AGCCACCC was 0.0778.
The value for CATAGATC was 0.0778.
For ATAACTCA the value was 0.0756; for CGCCCTAA, 0.0752.
For ACCTCCAC, the binding signal (normalized occupancy) came to 0.075.
For AAGGTTAA the value was 0.0737; for CGACGTCG, 0.0689; for GCGCCTCC, 0.0716.
The value for GGTGACAA was 0.0758; that for GCGAGCAA was 0.0723; that for CATAGTCC was 0.0786.
For CCCTATCA the value was 0.0783.
For CTCCCCAG, the binding signal (normalized occupancy) came to 0.0736.
For ACCTCCGG the value was 0.0726; for GACGCCGA, 0.0719.
The value for GGGTTTAC was 0.0759; that for CTGCGTTA was 0.0701; that for ATTCCCTC was 0.0778.
Consider AGGATTGG, for which the binding signal (normalized occupancy) was 0.0762.
The value for GTAAACCA was 0.0801; that for CAGTGATC was 0.075.
The value for AGCGAAGG was 0.0678.
With CTAGGTAA, the binding signal (normalized occupancy) turned out to be 0.0728.
As to ACTTACCG, the binding signal (normalized occupancy) turned out to be 0.0743.
The value for GTTGCCGA was 0.0693; that for AAACCTGA was 0.0719.
For CCCTCTAA the value was 0.0754; for CATTAACA, 0.0801; for CACCGCTG, 0.0713.
The value for CCAACGGC was 0.067; that for CACCCCCG was 0.0852.
With GCGCAATA, the binding signal (normalized occupancy) came out at 0.0744.
For CCTACTAA the value was 0.0707; for AACCCTGG, 0.0704.
For CACCAAGA the value was 0.0735; for AGCTCCAC, 0.0753; for GCTTAAAC, 0.0661.
In the case of AAACTCCG, the binding signal (normalized occupancy) came to 0.0699.
With ATACACTC, the binding signal (normalized occupancy) was 0.0788.
Regarding GGCCCACA, the binding signal (normalized occupancy) was found to be 0.0789.
The value for ACCACTTA was 0.0717; that for ATATGGGG was 0.0907.
The value for AATGCTTA was 0.0806.
The value for CGCTCTAG was 0.0702; that for CACTACGC was 0.0743.
For AGACGCGC, the binding signal (normalized occupancy) came out at 0.0741.
Regarding GATGTCGA, the binding signal (normalized occupancy) came out at 0.0818.
In the case of CAGCCAAG, the binding signal (normalized occupancy) amounted to 0.0684.
With CGTCCTTC, the binding signal (normalized occupancy) amounted to 0.0725.
The value for CTTTATTC was 0.0734; that for ATACCTGC was 0.0811; that for GGCACCCC was 0.0741.
For GGTCACCA the value was 0.0728.
On to TGTCTCAA, for which the binding signal (normalized occupancy) amounted to 0.0828.
The value for CAACCGGC was 0.0692; that for ACCAGTAA was 0.0782; that for CCTGGGTA was 0.0757.
The value for AGCTTCTC was 0.0764.
Take CCGTCAGA: the binding signal (normalized occupancy) came out at 0.0769.
The value for ACGCAGCA was 0.0743.
For AAACGAGT the value was 0.0728; for ACCATTCG, 0.0798.
The value for TAGCAATA was 0.0725; that for CCCCCTCG was 0.0775.
For CCGGGGTA, the binding signal (normalized occupancy) was 0.0759.
As to AATAAGGC, the binding signal (normalized occupancy) worked out at 0.0746.
The value for ACTCCTTG was 0.0742; that for CAAGAAAC was 0.0724; that for ACAGATGG was 0.0869.
For ACCGGAGG the value was 0.0682; for GCGGAGAA, 0.0686; for CTGAATAC, 0.0791.
Turning to CGCTACGC, the binding signal (normalized occupancy) stood at 0.0681.
The value for AGCTTATA was 0.0791; that for AGCAAAAG was 0.0707; that for CCGCGCCG was 0.0707.
The value for AACCCAGT was 0.0735.
As for AATGTTGA, the binding signal (normalized occupancy) was 0.0797.
Regarding GACAGGTA, the binding signal (normalized occupancy) was determined as 0.0758.
For the sequence AATGGCTG, the binding signal (normalized occupancy) came to 0.0758.
For GTTTGTCA the value was 0.0796; for CGCAGGAA, 0.0695; for GGGCCCAA, 0.0639.
With GAAAGTGA, the binding signal (normalized occupancy) was found to be 0.0763.
The value for CCTAGCCG was 0.069; that for AAACGCGA was 0.0771; that for CGTGCGTC was 0.0896.
For TGGCTACA the value was 0.0814; for CGTGATTA, 0.0871; for CGAGGGCG, 0.0774.
The value for AGCCAGTG was 0.0698.
With ACTAATCT, the binding signal (normalized occupancy) is 0.075.
The value for AGCGTATG was 0.0754; that for GGCAAGCA was 0.0733; that for AGACTCGA was 0.0716.
For ATGCTAAC the value was 0.0804; for ACGTAAGA, 0.0838.
For ACGCTGCT the value was 0.0814; for AAGGCTGT, 0.0758.
For ACCAACGA, the binding signal (normalized occupancy) is 0.081.
The value for ACACGAAA was 0.0765; that for CGGGATGA was 0.0731; that for CGAGACCC was 0.0802.
For CGGCAGAC the value was 0.0689; for GGCTAGCA, 0.0747; for AGAAGGGA, 0.0732.
The value for ATCACGTG was 0.363; that for CGGGTGCC was 0.0651; that for GGCCCTAA was 0.0688.
Regarding ATTGCGGG, the binding signal (normalized occupancy) is 0.0765.
The value for AACAAGGA was 0.0762; that for ATCGCGTC was 0.0719.
The value for ATCTCGGG was 0.0719.
The value for AAGCTTGC was 0.0676; that for ACAGCTTG was 0.0733; that for GGTTCTAA was 0.0726.
Regarding CCAGCAAG, the binding signal (normalized occupancy) is 0.0681.
As to CTGTCAAG, the binding signal (normalized occupancy) stood at 0.0727.
For AGCATTCC the value was 0.0752; for AAGAGACG, 0.0716.
For ATTAAAGG the value was 0.0805; for ATCGCCGA, 0.0696; for AGGGTTCG, 0.0723.
For AAGGGCGC the value was 0.0669; for ACGAGGTG, 0.0853.
In the case of CTTCAGAC, the binding signal (normalized occupancy) worked out at 0.0728.
For TAGGTCAA the value was 0.0785; for TCCTGCGA, 0.0696.
The value for GGATTAAA was 0.075; that for ACTACGTC was 0.0721.
For AACAAGCT the value was 0.0721; for ATGTCCAC, 0.087.
For the sequence TAAGAACA, the binding signal (normalized occupancy) turned out to be 0.0773.
The value for CCACAAGG was 0.0834; that for CACGAAGC was 0.075.
Turning to AGTAGATG, the binding signal (normalized occupancy) was 0.0731.
The value for AATATACT was 0.079; that for CTTGGGTA was 0.0749.
For GTCCACTA the value was 0.0773.
For CGTTATGC the value was 0.0788; for CTTTTTGC, 0.0701.
Turning to CCGGTAGA, the binding signal (normalized occupancy) turned out to be 0.0669.
For CGGGTGAG the value was 0.076; for CATGGCCC, 0.0896.
AAGTGGAG: the binding signal (normalized occupancy) is 0.077.
The value for CATTTCAG was 0.0727.
For the sequence ACGTCAGT, the binding signal (normalized occupancy) is 0.0695.
The value for AGAAGCGC was 0.0644; that for AGGTTTAC was 0.0729.
The value for ACGAGGGC was 0.0833.
For AGGAAGGG the value was 0.069; for AAAGTCGA, 0.0698.
As for TCGCTGAA, the binding signal (normalized occupancy) came out at 0.0725.
Regarding CATCACAG, the binding signal (normalized occupancy) turned out to be 0.0787.
Consider AATCTTCG, for which the binding signal (normalized occupancy) came to 0.0707.
With AGTGGGGA, the binding signal (normalized occupancy) was 0.0783.
Take GGAACGTA: the binding signal (normalized occupancy) worked out at 0.0739.
The value for AGGGGACC was 0.0718.
